This is one part of the list.

The test system of this assay is T1, C. trachomatis L2/434/Bu expressing GFP (CTL2-GFP).
T1 construct: L2/434/Bu GFP intracellular growth in HeLa cells
Also noted: species or system HeLa; C. trachomatis total inclusion area by high-content imaging, normalised to DMSO. The note with it: total inclusion area; 28.5 h, 10 µM; inhibitor. The method in brief:
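Following bulk GFP and resorufin fluorescence reads, infected cells were fixed, Hoechst-stained and imaged on a high-content platform. Inclusion total area and number per well served as growth proxies; nuclei counts indicated host viability. MICs were derived as for the fluorescence assay.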
In the case of `Cc1ccc(C(=O)NC(=S)Nc2cccc(NC(=O)c3ccccc3C)c2)cc1` [CBK264049], the “% of control remaining” value amounted to 108.384.
Consider `c1ccc(NCCOc2nccnc2N2CCCC2)cc1` [CBK115814], for which the “% of control remaining” value was 79.1792.
Take `Cc1coc(C)c1C(=O)CC1(O)C(=O)N(CCCC#N)c2ccccc21` (centres unmarked) [CBK307383]: the “% of control remaining” value is recorded as 61.8574.
As for `Nc1ccc(-n2c(-c3ccccc3)c3c(c2-c2ccc(Cl)cc2)C(=O)c2ccccc2C3=O)cc1` [CBK262695], the “% of control remaining” value is recorded as 101.441.
Consider `COc1ccccc1C(=O)N1CCC[C@@H](N)[C@@H]1c1ccccc1F` [CBK283458], for which the “% of control remaining” value is given as 104.063.
For `COC(=O)c1ccc(S(N)(=O)=O)o1` [CBK113186], the “% of control remaining” value was 87.7173.
Next, `CS(=O)(=O)c1sc(C(=O)O)c2c1C=CCC2` [CBK005513]: 94.9564.
Next, `Oc1cc(C(F)(F)F)nc(N2CCc3ccccc3C2)n1` [CBK000344]: 80.726; `COc1cccc(C2CC(c3cccc(Cl)c3)n3nc(N)nc3N2)c1` (centres unmarked) [CBK293966]: 103.001.
Next, `COc1ccc(CCN2CCC(Oc3nccnc3NS(C)(=O)=O)CC2)cc1OC` [CBK084285]: 93.5405; `COc1cc(NC(=O)c2ccc3c(c2)C(=O)N(Cc2ccccc2)C3=O)c(C(=O)O)cc1OC` [CBK266544]: 122.349.
With `CC(=O)NC(c1ccccn1)C1CCCN(C(=O)C2CCCCC2)C1` (centres unmarked) [CBK285031], the “% of control remaining” value was 85.7809.
The result for `CN(C)c1ccccc1-c1cc(NCCc2ccccn2)ncn1` [CBK037189] reads 111.188; that for `Cc1cc(C(F)F)nn1CC(=O)N1CCc2ncc(Cl)cc2C1` [CBK284853], 68.0881; that for `O=C(COC(=O)c1ccc2c(c1)C(=O)N(c1cccc(Cl)c1)C2=O)c1ccc(Br)cc1` [CBK262324], 126.595.
In the case of `c1cc(-c2ccc(Nc3ccc(N4CCOCC4)cc3)nc2)cs1` [CBK036844], the “% of control remaining” value is 160.581.
Next, `O=C1CC(N2CCN(Cc3ccc4c(c3)OCO4)CC2)C(=O)N1c1ccc(Br)cc1` (centres unmarked) [CBK074544]: 95.5875; `c1ccc(-c2nnc(CSc3nnc(-c4ccncc4)[nH]3)o2)cc1` [CBK269962]: 74.4809.
Regarding `COc1cc(/C=N/n2c(S)nnc2-c2cccnc2)ccc1OCc1ccccc1` [CBK265307], the “% of control remaining” value is 119.174.
The result for `Cc1ccc(Cl)cc1Nc1nc2nc(C)c(NCC3CC3)cn2n1` [CBK008522] reads 32.6352; that for `CCOc1ccc(NC(=O)COc2ccccc2/C=C/C(=O)O)cc1` [CBK286935], 88.6037.
Turning to `O=C(Nc1cnc(-c2cccc(OC(F)(F)F)c2)c(-c2cccnc2)n1)c1ccccn1` [CBK036837], the “% of control remaining” value is on record as 117.91.
The result for `CCCn1ncc(CN2CCC3(CC2)CC(C(=O)O)N(C(C)=O)C3)c1C` (centres unmarked) [CBK306612] reads 71.2923.
On to `COc1cccc(N2CCN(c3cc4n[nH]c(=O)n4cn3)CC2)c1` [CBK300511], for which the “% of control remaining” value was 82.6237.
With `CC(C)(C)C(=O)N[C@H]1C[C@@H](Cc2cc(CN3CCOCC3)on2)C1(C)C` [CBK289247], the “% of control remaining” value amounted to 94.3064.
The result for `CCC(CN1CCOCC1)n1cncc1-c1[nH]c2ccccc2c1C` (centres unmarked) [CBK281800] reads 105.852.
For the compound `CN1C(=O)C(CC(=O)NCCCc2ccc(F)cc2)c2ccccc21` (centres unmarked) [CBK282474], the “% of control remaining” value worked out at 99.6696.
The result for `Cc1cc(NC(=O)C2COc3ccccc3O2)c2ccccc2n1` (centres unmarked) [CBK115871] reads 109.435.
Next, `C=Cn1ncc(CN2CCC3(O)CCCCC3C2)c1C` (centres unmarked) [CBK283302]: 108.817; `Cc1cc(/C=C\c2nc(O)c([N+](=O)[O-])c(=O)[nH]2)c(C)n1-c1ccc(C(=O)O)cc1` [CBK267334]: 127.035; `O=C(O)c1ccc(N2CCN(CCO)CC2)c([N+](=O)[O-])c1` [CBK264911C]: 115.585.
Next, `CCCC/C=C/c1cncc(N2CCN(c3ccccn3)CC2)n1` [CBK037276]: 77.6906; `Cc1ccc(C2=CCN(CC(=O)Nc3ncc(C)s3)CC2)o1` [CBK283383]: 117.118.
For the compound `COc1ccc2[nH]c3c(c2c1)CCN(C=O)C31CCCN(CCC#N)C1` (centres unmarked) [CBK039445], the “% of control remaining” value is reported as 97.0136.
Next, `COC(=O)c1ccc(N2C(=O)CC(SCCc3nc4ccccc4[nH]3)C2=O)cc1` (centres unmarked) [CBK267188]: 116.615; `Cc1ccc(Oc2ccc([N+](=O)[O-])cc2)c(Br)c1` [CBK002832]: 104.831.
Next, `O=C(O)C1CC1C(=O)N1CC2(CCCC2)c2c(F)cccc21` (centres unmarked) [CBK306360]: 49.7783.
Next, `O=S(=O)(NC[C@H]1C[C@@H]2CC[N@]1C[C@@H]2CN1CCOCC1)c1ccc(Cl)cc1` [CBK288762]: 119.772; `Cn1c(=O)c2c(nc(Nc3ccc(Cl)cc3Cl)n2CC(=O)O)n(C)c1=O` [CBK286792]: 114.92.
In the case of `CCc1nn2c(=O)cc(CNc3ccccc3CN(C)C(C)=O)nc2s1` [CBK305604], the “% of control remaining” value was 25.4114.
Next, `Cc1nn(CC(=O)OC2CCCCC2)c(=O)c2cc3ccsc3n12` [CBK284058]: 89.5193; `CCOC(=O)Nc1ccc2c(c1)N(C(=O)CN1CCOCC1)c1ccccc1CC2` [CBK261286C]: 91.3672; `CCn1cc(CN2CCN(C(=O)c3csc(C(C)C)c3)CC2)cn1` [CBK282044]: 90.0041.
As for `C=CCNc1nccnc1-c1cc(OC)c(OC)c(OC)c1` [CBK036872], the “% of control remaining” value came out at 83.1845.
Next, `Cc1c(C(=O)Nc2ccc(Cl)cc2)sc2c1C(c1cccnc1)CC(=O)N2` (centres unmarked) [CBK288233]: 39.8892; `O=C(Cn1cc(-c2ccc(CN3CCCCC3)cc2)nn1)NCc1ccc(C2CCC2)cc1` [CBK167547]: 94.7475; `CC1=C[C@@H](CO)[C@H](C(C)C)C[C@H]1CC(=O)N1CCN(CCO)CC1` [CBK289217]: 111.423.
The result for `CNCc1cc(Br)c(OCC(=O)Nc2ccccc2OC)c(OC)c1` [CBK107772] reads 78.6016.
Turning to `c1cc(-c2cnc(N3CCOCC3)c3nccn23)c2cccnc2c1` [CBK091270], the “% of control remaining” value is reported as 83.2036.
As for `O=C(Nc1cc(Cl)ccc1C(=O)NC1CCC(O)CC1)c1cccs1` (centres unmarked) [CBK306186], the “% of control remaining” value was 47.5048.

(Values after publication PMC12040169 (PLOS Biology, 2025).)
